Source: the supplement of paper PMC11417369
This is one part of the list.

test system: PfHDP1 homeodomain (GST-tagged); assay: gcPBM binding intensity (ln(normalized median fluorescence intensity)); higher = stronger DNA binding
In short: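 DNA-binding domains from P. falciparum, fused to GST and produced in E. coli, were put on an Agilent 4 × 180k double-stranded probe array for 1 h in 1× PBS holding 1% milk, 0.2 mg/ml BSA, 0.5% salmon testes DNA and 0.03% Triton X-100. Probes were primer-extended, 36 bp long and drawn from intergenic genomic regions, with negative controls included. After Alexa488 anti-GST antibody detection and a 488 nm scan, binding intensity was set as the highest Masliner-normalised natural-log median intensity across replicate spots of either probe orientation.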

| Sequence | gcPBM binding intensity (ln) |
| --- | --- |
| TATTTTAATTTTTGTTGTACGCAAATGTGAGGGCAT [XGTACX_site4663] | 6.73 |
| AGGTAGAAAAAAGACACACACATTAGATATTTATAT [CACACA_site6313] | 6.64 |
| GTTCATAAATTAAACACACACACACGGCTGGATACC [CACACA_site7545] | 6.72 |
| GTAAAACAGATTTACAGTACACATGTGTTATGTTTT [XGTACX_site2933] | 6.64 |
| TTTATATATAAATAATGTACAAAAAATTTTAAAAAG [XGTACX_site7990] | 7.03 |
| ATAAAAATATTTGAATGTACTTATAAGATATATATA [XGTACX_site4257] | 6.76 |
| TTTTTATATTTTATTATTTTTTTTATATAAAAAATT [CACACA_negctrl_site601] | 6.55 |
| TATACGTATTACAGAGTGCAATAAACAGTATATATT | 8.55 |
| TGTATAAACTTTACGTGTACATGAATAATCTATAAT [XGTACX_site3801] | 6.49 |
| TAAATACATCTATGCACACAAAAAAATATATATTTT [CACACA_site5027] | 9.24 |
| TTTATAAATTCTCTTTTTAAAAAATATTTTTATACT [CACACA_negctrl_site427] | 6.4 |
| TAATCATTTTAGCTTACACACAAAATTTTGTTATAA [CACACA_site2939] | 6.59 |
| AAAATAATTTTATAAGTGCAAAATAGCTTATTTATA | 8.95 |
| TTGTACAAAAATAATGCACACTATATCAAGTTTTTT [CACACA_site5898] | 10.3 |
| AAAATGGAACTAGGAATAATATAAGAAGATAAAAGG [XGTACX_negctrl_site347] | 6.82 |
| TATATATGTGTATAGAGTACACGTTTTTTTTAATAT [XGTACX_site3128] | 6.3 |
| AAAAACCTGAACTGTGCATGTCATACTTTTACTTTT [TGCATGCA_site73] | 7.02 |
| TTAGGATTGAAGAGTTGTACATACCTCTTATTTGTT [XGTACX_site1376] | 6.22 |
| TATAAAATGTAATCTGAACACACATATTTTTTTAAT [CACACA_site8521] | 6.16 |
| ATCATATATTATTTATGTACTTATTTATAATAATAT [XGTACX_site8257] | 6.47 |
| TTAAAATTATAATACGTACACACCTTATCTTTTTGG [CACACA_site278] | 6.64 |
| ATATATAACGGGCACACACACATTTACGTATGAATA [CACACA_site1833] | 6.97 |
| GGCGTATGTGTATATACACACCCACGTATATATATA [CACACA_site9046] | 8.02 |

| Sequence | gcPBM binding intensity (ln) |
| --- | --- |
| TGTTGTTTTATGTTGTATTGTAATATATTATATTAT [XGTACX_negctrl_site46] | 7.16 |
| AAATATATTTCTTTTTTTCTTATTATTAATTTGCTT [CACACA_negctrl_site1483] | 6.23 |
| TATAGATTTATATACACATGCATTTTGGTAAAGAAA [TGCATGCA_site953] | 6.59 |
| TTTATTTATTATTATGTACACACTATATTAAAACAT [CACACA_site700] | 6.62 |
| TTATAATAAATATTCATATGTTCAAATATATATATA [CACACA_negctrl_site624] | 8.42 |
| ATTGTAAGTAGACACACACACATATAGATGTATATA [CACACA_site6463] | 6.81 |
| TATTTTTTTAATAACTGTACTTTTTTGTCAAATGGA [XGTACX_site4179] | 6.18 |
| AATGTTTTTGTGAGATGTATAAATTTTATTTTATTT [XGTACX_negctrl_site413] | 6.5 |
| AAAAAAATAATGTACACACACATATAGGTTTATATA [CACACA_site192] | 6.48 |
| TAAGTTTTGTTCTTTTGTACATATAAGTATAGATCG [XGTACX_site4735] | 6.4 |
| TTGGGCATAATGTCATGTACACAAATAATTCTTTAT [XGTACX_site861] | 6.47 |
| ATATATGGAGCTTATACACACTTTTATATTTTAACA [CACACA_site7757] | 6.97 |
| AAACGTGTGTATAATAGTACATAATTATAACGTAAT [XGTACX_site421] | 6.77 |
| AAATTTGGCAAACACACACACACACCCACAGAGACA [CACACA_site4490] | 6.82 |
| CGTATTTTTGGACATGCATGTACAAATAATCTTATG [TGCATGCA_site973] | 6.51 |
| TATATAACCTATAGCACACATATATAATATATATTA [CACACA_site1834] | 6.94 |
| TTCTATTCAAATGCAAAATTATTAAATAAAAAATAA [GTGCAC_negctrl_site708] | 6.75 |
| TTATTTTTTTTAAATTGTACAAGGAACAGTGAAAAA [XGTACX_site4380] | 7.03 |
| TAAATGTCTTCAATGAAGTGGAAATGCTGTTATATA [CACACA_negctrl_site1155] | 6.4 |
| TTTGTGTGTACGCGTGTGCACATTTTTTTTTTTTTT | 9.58 |
| ATGTATGAATTACATAGTACATAAGAAAAAATGAAG [XGTACX_site5942] | 7.08 |
| GTTTTCATCCAAAAAAGTACATTTATTTTTATACGA [XGTACX_site1039] | 6.31 |
